{
  "source": "the supplement of paper PMC8728848",
  "binders": {"B1": {"name": "FimD (Bordetella pertussis) (protein)", "chain": "MPARVISFCGAALAVWAGLAVQPAMAVDPPVDCGRALGLHFWSSASLISDQTPDGTLIGKPVVGRSLLSKSCKVPDDIKEDLSDNHDGEPVDIVLELGSNYKIRPQSYGHPGIVVDLPFGSTEETGIAIYIDFGSSPMQKVGERQWLYPQKGEVLFDVLTINGDNAEVRYQAIKVGPLKRPRKLVLSQFPNLFTYKWVFMRGTSQERVLAQGTIDTDVATSTIDLKTCRYTSQTVSLPIIQRSALTGVGTTLGMTDFQMPFWCYGWPKVSVYMSATKTQTGVDGVALPATGQAAGMASGVGVQLINGKTQQPVKLGLQGKIALPEAQQTESATFSLPMKAQYYQTSTSTSAGKLSVTYAVTLNYD"}},
  "test_in_all_cases": "glycan array binding signal (z-score within array); higher = stronger binding",
  "details_in_all_cases": "glycan notation: IUPAC condensed, linker removed",
  "key": {"[1]": {"target": "Fuc(a1-2)Gal", "summary_of_the_method": "(§1)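 Glycan array data came from 3228 arrays in the Consortium for Functional Glycomics database, and only arrays with an available protein sequence were kept. Glycan names were put into IUPAC-condensed notation, and columns mapping to the same glycan were averaged. The binding signal is a within-array Z-score, averaged across arrays of one protein sequence run at different concentrations or buffers and across linkers. A negative Z-score can be read as non-binding.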"}, "[2]": {"target": "Fuc(a1-2)Gal(b1-3)GalNAc", "summary_of_the_method": "as §1"}, "[3]": {"target": "Fuc(a1-2)Gal(b1-3)GalNAc(a1-3)[Fuc(a1-2)]Gal(b1-4)Glc", "summary_of_the_method": "as §1"}, "[4]": {"target": "Fuc(a1-2)Gal(b1-3)GalNAc(a1-3)[Fuc(a1-2)]Gal(b1-4)GlcNAc", "summary_of_the_method": "as §1"}, "[5]": {"target": "Fuc(a1-2)Gal(b1-3)GalNAc(b1-3)Gal", "summary_of_the_method": "as §1"}, "[6]": {"target": "Fuc(a1-2)Gal(b1-3)GalNAc(b1-3)Gal(a1-4)Gal(b1-4)Glc", "summary_of_the_method": "as §1"}, "[7]": {"target": "Fuc(a1-2)Gal(b1-3)GalNAc(b1-4)[Neu5Ac(a2-3)]Gal(b1-4)Glc", "summary_of_the_method": "as §1"}, "[8]": {"target": "Fuc(a1-2)Gal(b1-3)GlcNAc", "summary_of_the_method": "as §1"}, "[9]": {"target": "Fuc(a1-2)Gal(b1-3)GlcNAc(b1-2)Man(a1-3)[Fuc(a1-2)Gal(b1-3)GlcNAc(b1-2)Man(a1-6)]Man(b1-4)GlcNAc(b1-4)GlcNAc", "summary_of_the_method": "as §1"}, "[10]": {"target": "Fuc(a1-2)Gal(b1-3)GlcNAc(b1-2)Man(a1-3)[Fuc(a1-2)Gal(b1-3)GlcNAc(b1-2)Man(a1-6)]Man(b1-4)GlcNAc(b1-4)[Fuc(a1-6)]GlcNAc", "summary_of_the_method": "as §1"}, "[11]": {"target": "Fuc(a1-2)Gal(b1-3)GlcNAc(b1-3)Gal(b1-4)Glc", "summary_of_the_method": "as §1"}, "[12]": {"target": "Fuc(a1-2)Gal(b1-3)GlcNAc(b1-3)GalNAc", "summary_of_the_method": "as §1"}, "[13]": {"target": "Fuc(a1-2)Gal(b1-3)GlcNAc(b1-3)[Fuc(a1-2)Gal(b1-3)GlcNAc(b1-6)]GalNAc", "summary_of_the_method": "as §1"}, "[14]": {"target": "Fuc(a1-2)Gal(b1-3)GlcNAc(b1-3)[Gal(b1-4)GlcNAc(b1-6)]Gal(b1-4)Glc", "summary_of_the_method": "as §1"}, "[15]": {"target": "Fuc(a1-2)Gal(b1-3)GlcNAc(b1-3)[Neu5Ac(a2-6)Gal(b1-4)GlcNAc(b1-6)]Gal(b1-4)Glc", "summary_of_the_method": "as §1"}, "[16]": {"target": "Fuc(a1-2)Gal(b1-3)GlcNAc6S", "summary_of_the_method": "as §1"}, "[17]": {"target": "Fuc(a1-2)Gal(b1-3)[Fuc(a1-4)]GlcNAc", "summary_of_the_method": "as §1"}, "[18]": {"target": "Fuc(a1-2)Gal(b1-3)[Fuc(a1-4)]GlcNAc(b1-2)Man(a1-3)[Fuc(a1-2)Gal(b1-3)[Fuc(a1-4)]GlcNAc(b1-2)Man(a1-3)]Man(b1-4)GlcNAc(b1-4)GlcNAc", "summary_of_the_method": "as §1"}, "[19]": {"target": "Fuc(a1-2)Gal(b1-3)[Fuc(a1-4)]GlcNAc(b1-2)Man(a1-3)[Fuc(a1-2)Gal(b1-3)[Fuc(a1-4)]GlcNAc(b1-2)Man(a1-6)]Man(b1-4)GlcNAc(b1-4)[Fuc(a1-6)]GlcNAc(b1-4)[Fuc(a1-6)]GlcNAc", "summary_of_the_method": "as §1"}, "[20]": {"target": "Fuc(a1-2)Gal(b1-3)[Fuc(a1-4)]GlcNAc(b1-3)[Fuc(a1-3)[Gal(b1-4)]GlcNAc(b1-6)]Gal(b1-4)Glc", "summary_of_the_method": "as §1"}, "[21]": {"target": "Fuc(a1-2)Gal(b1-3)[Fuc(a1-4)]GlcNAc(b1-3)[Gal(b1-4)GlcNAc(b1-6)]Gal(b1-4)Glc", "summary_of_the_method": "as §1"}, "[22]": {"target": "Fuc(a1-2)Gal(b1-4)Glc", "summary_of_the_method": "as §1"}, "[23]": {"target": "Fuc(a1-2)Gal(b1-4)Glc6S", "summary_of_the_method": "as §1"}, "[24]": {"target": "Fuc(a1-2)Gal(b1-4)GlcNAc", "summary_of_the_method": "as §1"}, "[25]": {"target": "Fuc(a1-2)Gal(b1-4)GlcNAc(b1-2)Man", "summary_of_the_method": "as §1"}, "[26]": {"target": "Fuc(a1-2)Gal(b1-4)GlcNAc(b1-2)Man(a1-3)[Fuc(a1-2)Gal(b1-4)GlcNAc(b1-2)Man(a1-6)]Man(b1-4)GlcNAc(b1-4)GlcNAc", "summary_of_the_method": "as §1"}, "[27]": {"target": "Fuc(a1-2)Gal(b1-4)GlcNAc(b1-2)Man(a1-3)[Fuc(a1-2)Gal(b1-4)GlcNAc(b1-2)Man(a1-6)]Man(b1-4)GlcNAc(b1-4)[Fuc(a1-6)]GlcNAc", "summary_of_the_method": "as §1"}, "[28]": {"target": "Fuc(a1-2)Gal(b1-4)GlcNAc(b1-2)[Fuc(a1-2)Gal(b1-4)GlcNAc(b1-4)]Man(a1-3)[Fuc(a1-2)Gal(b1-4)GlcNAc(b1-2)Man(a1-6)]Man(b1-4)GlcNAc(b1-4)GlcNAc", "summary_of_the_method": "as §1"}, "[29]": {"target": "Fuc(a1-2)Gal(b1-4)GlcNAc(b1-3)Gal(b1-4)GlcNAc", "summary_of_the_method": "as §1"}, "[30]": {"target": "Fuc(a1-2)Gal(b1-4)GlcNAc(b1-3)Gal(b1-4)GlcNAc(b1-2)Man(a1-3)[Fuc(a1-2)Gal(b1-4)GlcNAc(b1-3)Gal(b1-4)GlcNAc(b1-2)Man(a1-6)]Man(b1-4)GlcNAc(b1-4)GlcNAc", "summary_of_the_method": "as §1"}},
  "note": "This is one part of the list.",
  "data": [
    {"binder": "B1", "values": [
      {"measurement": "glycan array binding signal (z-score)", "setting": "[1]", "result": 0.179},
      {"measurement": "glycan array binding signal (z-score)", "setting": "[2]", "result": -0.111},
      {"measurement": "glycan array binding signal (z-score)", "setting": "[3]", "result": -0.102},
      {"measurement": "glycan array binding signal (z-score)", "setting": "[4]", "result": -0.301},
      {"measurement": "glycan array binding signal (z-score)", "setting": "[5]", "result": 0.156},
      {"measurement": "glycan array binding signal (z-score)", "setting": "[6]", "result": -0.143},
      {"measurement": "glycan array binding signal (z-score)", "setting": "[7]", "result": -0.296},
      {"measurement": "glycan array binding signal (z-score)", "setting": "[8]", "result": -0.005},
      {"measurement": "glycan array binding signal (z-score)", "setting": "[9]", "result": -0.139},
      {"measurement": "glycan array binding signal (z-score)", "setting": "[10]", "result": -0.301},
      {"measurement": "glycan array binding signal (z-score)", "setting": "[11]", "result": -0.168},
      {"measurement": "glycan array binding signal (z-score)", "setting": "[12]", "result": -0.342},
      {"measurement": "glycan array binding signal (z-score)", "setting": "[13]", "result": 0.526},
      {"measurement": "glycan array binding signal (z-score)", "setting": "[14]", "result": -0.659},
      {"measurement": "glycan array binding signal (z-score)", "setting": "[15]", "result": -0.241},
      {"measurement": "glycan array binding signal (z-score)", "setting": "[16]", "result": 0.107},
      {"measurement": "glycan array binding signal (z-score)", "setting": "[17]", "result": -0.428},
      {"measurement": "glycan array binding signal (z-score)", "setting": "[18]", "result": -0.121},
      {"measurement": "glycan array binding signal (z-score)", "setting": "[19]", "result": -0.061},
      {"measurement": "glycan array binding signal (z-score)", "setting": "[20]", "result": -0.412},
      {"measurement": "glycan array binding signal (z-score)", "setting": "[21]", "result": -0.148},
      {"measurement": "glycan array binding signal (z-score)", "setting": "[22]", "result": -0.469},
      {"measurement": "glycan array binding signal (z-score)", "setting": "[23]", "result": -0.217},
      {"measurement": "glycan array binding signal (z-score)", "setting": "[24]", "result": -0.157},
      {"measurement": "glycan array binding signal (z-score)", "setting": "[25]", "result": -0.283},
      {"measurement": "glycan array binding signal (z-score)", "setting": "[26]", "result": -0.153},
      {"measurement": "glycan array binding signal (z-score)", "setting": "[27]", "result": -0.397},
      {"measurement": "glycan array binding signal (z-score)", "setting": "[28]", "result": -0.517},
      {"measurement": "glycan array binding signal (z-score)", "setting": "[29]", "result": -0.388},
      {"measurement": "glycan array binding signal (z-score)", "setting": "[30]", "result": 0.071}
    ]}
  ]
}
